This assay relates to MYC. Briefly: cells. To be noted: Homo sapiens, MV4-11, 4 h, read-out: Myc IC50 (μM).

Molecules are shown by their SMILES.

The term IC50 denotes the concentration that gives 50% inhibition.

Turning to `Cn1cc(-c2ccc3c(c2)CCCN3c2nn([C@H]3CCOC3)c3c2CN(C(N)=O)CC3)cn1` [Example 150, 3-[6-(1-methylpyrazol-4-yl)-3,4-dihydro-2H-quinolin-1-yl]-1-[(3S)-tetrahydrofuran-3-yl]-6,7-dihydro-4H-pyrazolo[4,3-c]pyridine-5-carboxamide], the IC50 turned out to be 14.4 µM.

On to `Cn1cc(-c2cc3c(cc2OC(F)F)N(c2nn(C4CCOCC4)c4c2CN(C(N)=O)CC4)CCC3)cn1` [Example 152, 3-[7-(difluoromethoxy)-6-(1-methylpyrazol-4-yl)-3,4-dihydro-2H-quinolin-1-yl]-1-tetrahydropyran-4-yl-6,7-dihydro-4H-pyrazolo[4,3-c]pyridine-5-carboxamide], for which the IC50 turned out to be 0.072 µM.

With `CNC(=O)N1CCc2c(c(N3CCCc4cc(-c5cnn(C)c5)ccc43)nn2[C@H]2CCOC2)C1` [Example 156, N-methyl-3-[6-(1-methylpyrazol-4-yl)-3,4-dihydro-2H-quinolin-1-yl]-1-[(3S)-tetrahydrofuran-3-yl]-6,7-dihydro-4H-pyrazolo[4,3-c]pyridine-5-carboxamide], the IC50 worked out at 0.706 µM. Next, `CC(=O)N1CCc2c(c(Nc3ccc(-c4cncc(S(C)(=O)=O)c4)cc3)nn2C)C1` [Example 158, 3-[7-cyano-6-(1-methylpyrazol-4-yl)-3,4-dihydro-2H-quinolin-1-yl]-N-methyl-1-[(3S)-tetrahydrofuran-3-yl]-6,7-dihydro-4H-pyrazolo[4,3-c]pyridine-5-carboxamide]: 1.86 µM; `CNC(=O)N1CCc2c(c(N3CCCc4cc(-c5cnn(C)c5)c(C#N)cc43)nn2[C@H]2CCOC2)C1` [Example 158, 3-[7-cyano-6-(1-methylpyrazol-4-yl)-3,4-dihydro-2H-quinolin-1-yl]-N-methyl-1-[(3S)-tetrahydrofuran-3-yl]-6,7-dihydro-4H-pyrazolo[4,3-c]pyridine-5-carboxamide]: 0.046 µM. On to `CC(=O)N1CCc2c(c(N3CCc4ccc(-c5cnn(C)c5)cc43)nn2C)C1` [Example 168, 1-[1-methyl-3-[6-(1-methylpyrazol-4-yl)indolin-1-yl]-6,7-dihydro-4H-pyrazolo[4,3-c]pyridin-5-yl]ethanone], for which the half-inhibitory concentration (IC50) worked out at 0.478 µM. As to `CC(=O)N1CCc2c(c(N3CCc4ccc(-c5cnn(C)c5)cc43)nn2CC2CC2)C1` [Example 170, 1-[1-(cyclopropylmethyl)-3-[6-(1-methylpyrazol-4-yl)indolin-1-yl]-6,7-dihydro-4H-pyrazolo[4,3-c]pyridin-5-yl]ethanone], the IC50 turned out to be 0.499 µM. On to `CC(=O)N1CCc2c(c(N3CCc4cc(-c5cnn(C)c5)ccc43)nn2C2CCOC2)C1` (stereo not drawn) [Example 171, 1-[3-[5-(1-methylpyrazol-4-yl)indolin-1-yl]-1-tetrahydrofuran-3-yl-6,7-dihydro-4H-pyrazolo[4,3-c]pyridin-5-yl]ethanone], for which the IC50 worked out at 2.95 µM. As for `CC(=O)N1CCc2c(c(Nc3ccc(-c4cnn(C)c4)cc3)nn2CCC(N)=O)C1` [Example 171, 1-[3-[5-(1-methylpyrazol-4-yl)indolin-1-yl]-1-tetrahydrofuran-3-yl-6,7-dihydro-4H-pyrazolo[4,3-c]pyridin-5-yl]ethanone], the IC50 is 4.55 µM.

In the case of `CC(=O)N1CCc2c(c(N3CCc4ccccc43)nn2CC2CC2)C1` [Example 172, 1-[1-(cyclopropylmethyl)-3-indolin-1-yl-6,7-dihydro-4H-pyrazolo[4,3-c]pyridin-5-yl]ethanone], the IC50 came out at 1.69 µM.

Regarding `CC(=O)N1CCc2c(c(Nc3ccc(-c4cnn(C)c4)cc3)nn2C)C1` [Example 173, 1-(3-indolin-1-yl-1-methyl-6,7-dihydro-4H-pyrazolo[4,3-c]pyridin-5-yl)ethanone], the IC50 is 0.63 µM. For `CC(=O)N1CCc2c(c(N3CCc4cc(-c5cnn(C)c5)ccc43)nn2C2CCOCC2)C1` [Example 174, 1-[3-[5-(1-methylpyrazol-4-yl)indolin-1-yl]-1-tetrahydropyran-4-yl-6,7-dihydro-4H-pyrazolo[4,3-c]pyridin-5-yl]ethanone] the value was 0.478 µM; for `CC(=O)N1CCc2c(c(N3CC4(CC4)c4cc(-c5cnn(C)c5)ccc43)nn2C)C1` [Example 176, 1-[1-methyl-3-[5′-(1-methylpyrazol-4-yl)spiro[cyclopropane-1,3′-indoline]-1′-yl]-6,7-dihydro-4H-pyrazolo[4,3-c]pyridin-5-yl]ethanone], 0.523 µM. Take `CC(=O)N1CCc2c(c(N3CCc4cc(-c5cnn(C)c5)ccc43)nn2[C@@H]2CCOC2)C1` [Example 177, (R)-1-[3-[5-(1-methylpyrazol-4-yl)indolin-1-yl]-1-tetrahydrofuran-3-yl-6,7-dihydro-4H-pyrazolo[4,3-c]pyridin-5-yl]ethanone]: the IC50 was 0.892 µM. `CC(=O)N1CCc2c(c(N3CCc4cc(-c5cn(C)nc5C(F)(F)F)ccc43)nn2C2CCOC2)C1` (stereo not drawn) [Example 179, 1-[3-[5-[1-methyl-3-(trifluoromethyl)pyrazol-4-yl]indolin-1-yl]-1-tetrahydrofuran-3-yl-6,7-dihydro-4H-pyrazolo[4,3-c]pyridin-5-yl]ethanone]: the IC50 was 2.46 µM. As for `CC(=O)N1CCc2c(c(N3CCc4cc(-c5cn(C)nc5C(F)(F)F)ccc43)nn2C)C1` [Example 180, 1-[1-methyl-3-[5-[1-methyl-3-(trifluoromethyl)pyrazol-4-yl]indolin-1-yl]-6,7-dihydro-4H-pyrazolo[4,3-c]pyridin-5-yl]ethanone], the IC50 turned out to be 0.549 µM. Take `CC(=O)N1CCc2c(c(N3CCc4cc(-c5cn(C)nc5C(F)(F)F)ccc43)nn2C2COC2)C1` [Example 181, 1-[3-[5-[1-methyl-3-(trifluoromethyl)pyrazol-4-yl]indolin-1-yl]-1-(oxetan-3-yl)-6,7-dihydro-4H-pyrazolo[4,3-c]pyridin-5-yl]ethanone]: the IC50 stood at 0.188 µM. Take `CC(=O)N1CCc2c(c(N3CCc4cc(-c5cnn(C)c5C)ccc43)nn2C2CCOC2)C1` (stereo not drawn) [Example 184, 1-[3-[5-(1,5-dimethylpyrazol-4-yl)indolin-1-yl]-1-tetrahydrofuran-3-yl-6,7-dihydro-4H-pyrazolo[4,3-c]pyridin-5-yl]ethanone]: the IC50 is 0.982 µM. On to `CC(=O)N1CCc2c(c(N3CCc4cc(-c5cnn(C)c5C)ccc43)nn2[C@@H]2CCOC2)C1` [Example 185, (R)-1-[3-[5-(1,5-dimethylpyrazol-4-yl)indolin-1-yl]-1-tetrahydrofuran-3-yl-6,7-dihydro-4H-pyrazolo[4,3-c]pyridin-5-yl]ethanone], for which the IC50 worked out at 0.565 µM. With `CC(=O)N1CCc2c(c(N3CCc4cc(-c5cn(C)nc5C#N)ccc43)nn2C2CCOC2)C1` (stereo not drawn) [Example 187, 4-[1-(5-acetyl-1-tetrahydrofuran-3-yl-6,7-dihydro-4H-pyrazolo[4,3-c]pyridin-3-yl)indolin-5-yl]-1-methyl-pyrazole-3-carbonitrile], the IC50 stood at 0.284 µM. Consider `CC(=O)N1CCc2c(c(N3CCc4cc(-c5cn(C)nc5C#N)ccc43)nn2[C@H]2CCOC2)C1` [Example 189, (S)-4-[1-(5-acetyl-1-tetrahydrofuran-3-yl-6,7-dihydro-4H-pyrazolo[4,3-c]pyridin-3-yl)indolin-5-yl]-1-methyl-pyrazole-3-carbonitrile], for which the IC50 worked out at 1.76 µM. Consider `CC(=O)N1CCc2c(c(Nc3cccc(C)c3)nn2Cc2cnco2)C1` [Example 189, (S)-4-[1-(5-acetyl-1-tetrahydrofuran-3-yl-6,7-dihydro-4H-pyrazolo[4,3-c]pyridin-3-yl)indolin-5-yl]-1-methyl-pyrazole-3-carbonitrile], for which the IC50 came to 0.81 µM. In the case of `CC(=O)N1CCc2c(c(N3CCc4cc(-c5cnn(C)c5)c(F)cc43)nn2C2CCOC2)C1` (stereo not drawn) [Example 190, 1-[3-[6-fluoro-5-(1-methylpyrazol-4-yl)indolin-1-yl]-1-tetrahydrofuran-3-yl-6,7-dihydro-4H-pyrazolo[4,3-c]pyridin-5-yl]ethanone], the IC50 was 0.562 µM. For `CC(=O)N1CCc2c(c(N3CCc4cc(-c5cnn(C)c5)c(F)cc43)nn2C)C1` [Example 191, 1-[3-[6-fluoro-5-(1-methylpyrazol-4-yl)indolin-1-yl]-1-methyl-6,7-dihydro-4H-pyrazolo[4,3-c]pyridin-5-yl]ethanone] the value was 0.329 µM; for `CC(=O)N1CCc2c(c(N3CC(C)c4cc(-c5cnn(C)c5)ccc43)nn2C)C1` (stereo not drawn) [Example 192, 1-[1-methyl-3-[3-methyl-5-(1-methylpyrazol-4-yl)indolin-1-yl]-6,7-dihydro-4H-pyrazolo[4,3-c]pyridin-5-yl]ethanone], 0.745 µM. In the case of `CC(=O)N1CCc2c(c(N3C[C@@H](C)c4cc(-c5cnn(C)c5)ccc43)nn2[C@H]2CCOC2)C1` [Example 197, (S,S)-1-[3-[3-methyl-5-(1-methylpyrazol-4-yl)indolin-1-yl]-1-tetrahydrofuran-3-yl-6,7-dihydro-4H-pyrazolo[4,3-c]pyridin-5-yl]ethanone], the IC50 worked out at 1.57 µM. As to `CC(=O)N1CCc2c(c(Nc3cccc(C)c3)nn2C(C)c2ccccc2)C1` [Example 197, (S,S)-1-[3-[3-methyl-5-(1-methylpyrazol-4-yl)indolin-1-yl]-1-tetrahydrofuran-3-yl-6,7-dihydro-4H-pyrazolo[4,3-c]pyridin-5-yl]ethanone], the IC50 stood at 1.17 µM. For `CC(=O)N1CCc2c(c(N3CC(C)(C)c4cc(-c5cnn(C)c5)ccc43)nn2C)C1` [Example 199, 1-[3-[3,3-dimethyl-5-(1-methylpyrazol-4-yl)indolin-1-yl]-1-methyl-6,7-dihydro-4H-pyrazolo[4,3-c]pyridin-5-yl]ethanone] the value was 1.79 µM.

In the case of `CCn1nc(Nc2cccc(C)c2)c2c1CCN(C(C)=O)C2` [Example 199, 1-[3-[3,3-dimethyl-5-(1-methylpyrazol-4-yl)indolin-1-yl]-1-methyl-6,7-dihydro-4H-pyrazolo[4,3-c]pyridin-5-yl]ethanone], the IC50 is 2.89 µM. In the case of `CCC1CN(c2nn(C3CCOC3)c3c2CN(C(C)=O)CC3)c2ccc(-c3cnn(C)c3)cc21` (stereo not drawn) [Example 200, 1-[3-[3-ethyl-5-(1-methylpyrazol-4-yl)indolin-1-yl]-1-tetrahydrofuran-3-yl-6,7-dihydro-4H-pyrazolo[4,3-c]pyridin-5-yl]ethanone], the IC50 was 0.228 µM.
